{"sequences": {"note": "By UniProt entry, the sequences of proteins in these tests, tags left out. Where a name states a change or a piece, a line headed by the entry shows the natural chain unless it says otherwise. Chains listed by the source or under a name are the forms on record and can include a tag or linker. Residues count along the entry.", "UniProt Q6PHU5, residues 74-825": "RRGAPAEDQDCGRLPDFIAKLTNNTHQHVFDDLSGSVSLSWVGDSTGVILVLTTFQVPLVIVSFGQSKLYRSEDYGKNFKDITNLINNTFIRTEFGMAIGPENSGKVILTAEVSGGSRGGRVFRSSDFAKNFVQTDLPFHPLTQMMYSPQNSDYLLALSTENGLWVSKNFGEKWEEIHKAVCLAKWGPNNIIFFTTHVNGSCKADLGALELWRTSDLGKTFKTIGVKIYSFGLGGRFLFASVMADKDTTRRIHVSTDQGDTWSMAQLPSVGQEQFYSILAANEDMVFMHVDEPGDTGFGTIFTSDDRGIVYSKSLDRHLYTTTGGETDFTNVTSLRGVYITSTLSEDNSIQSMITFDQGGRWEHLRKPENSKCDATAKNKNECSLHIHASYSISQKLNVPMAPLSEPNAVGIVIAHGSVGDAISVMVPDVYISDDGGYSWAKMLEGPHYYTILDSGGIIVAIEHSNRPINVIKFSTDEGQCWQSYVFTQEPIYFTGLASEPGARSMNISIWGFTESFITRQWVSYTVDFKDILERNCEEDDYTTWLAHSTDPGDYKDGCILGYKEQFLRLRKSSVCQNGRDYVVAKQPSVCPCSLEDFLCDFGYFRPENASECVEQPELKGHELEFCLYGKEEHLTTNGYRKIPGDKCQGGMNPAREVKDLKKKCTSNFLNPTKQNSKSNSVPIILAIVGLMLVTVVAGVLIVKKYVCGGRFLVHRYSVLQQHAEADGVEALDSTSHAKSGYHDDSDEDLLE", "UniProt Q99523, residues 78-831": "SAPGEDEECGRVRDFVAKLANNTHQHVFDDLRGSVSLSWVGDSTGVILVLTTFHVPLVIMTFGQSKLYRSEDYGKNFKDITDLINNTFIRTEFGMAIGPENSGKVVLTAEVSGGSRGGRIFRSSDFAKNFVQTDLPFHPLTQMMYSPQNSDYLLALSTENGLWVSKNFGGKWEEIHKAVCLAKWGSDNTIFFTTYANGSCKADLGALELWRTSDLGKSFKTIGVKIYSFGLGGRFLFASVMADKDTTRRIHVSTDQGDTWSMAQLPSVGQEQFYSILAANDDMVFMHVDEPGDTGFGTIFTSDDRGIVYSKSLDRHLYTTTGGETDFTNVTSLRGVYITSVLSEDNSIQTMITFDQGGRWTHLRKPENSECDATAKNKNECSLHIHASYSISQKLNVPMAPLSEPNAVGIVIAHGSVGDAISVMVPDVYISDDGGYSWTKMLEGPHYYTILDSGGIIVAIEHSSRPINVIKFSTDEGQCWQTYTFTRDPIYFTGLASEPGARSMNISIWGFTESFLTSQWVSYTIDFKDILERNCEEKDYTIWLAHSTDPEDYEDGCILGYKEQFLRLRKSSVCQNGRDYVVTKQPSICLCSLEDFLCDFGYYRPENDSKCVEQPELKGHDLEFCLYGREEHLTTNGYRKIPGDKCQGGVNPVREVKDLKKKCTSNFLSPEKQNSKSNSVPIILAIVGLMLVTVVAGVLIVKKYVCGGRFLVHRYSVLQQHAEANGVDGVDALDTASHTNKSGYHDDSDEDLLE", "UniProt A0A4D6IX63": "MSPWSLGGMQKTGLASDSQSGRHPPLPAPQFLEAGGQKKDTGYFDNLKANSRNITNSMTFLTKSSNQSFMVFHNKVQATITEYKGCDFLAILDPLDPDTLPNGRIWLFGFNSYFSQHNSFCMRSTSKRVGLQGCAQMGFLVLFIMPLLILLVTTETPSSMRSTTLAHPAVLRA", "GST-fused RPS23RG1 extracellular fragment (RPS23RG1 aa 1-131)": "residues 1-131 of A0A4D6IX63", "Myc-RPS23RG1-Δ103-128 (A0A4D6IX63, form named)": "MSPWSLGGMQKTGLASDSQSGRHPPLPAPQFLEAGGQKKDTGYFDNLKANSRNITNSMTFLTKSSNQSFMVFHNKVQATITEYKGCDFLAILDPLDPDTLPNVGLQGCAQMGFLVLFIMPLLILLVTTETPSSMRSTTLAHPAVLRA", "Myc-RPS23RG1-Δ57-67 (A0A4D6IX63, form named)": "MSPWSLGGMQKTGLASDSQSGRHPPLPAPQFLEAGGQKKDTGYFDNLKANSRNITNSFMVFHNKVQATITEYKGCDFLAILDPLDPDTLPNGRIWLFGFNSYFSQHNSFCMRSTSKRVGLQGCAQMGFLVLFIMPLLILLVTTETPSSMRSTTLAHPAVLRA"}, "source": "paper PMC11729561", "molecules": {"B1": {"name": "MDGA2 (endogenous, mouse brain) (protein, UniProt P60755 26-924)", "chain": "PPTVRIVHSGLACNIEEERYSERVYTIREGETLELTCLVTGHPRPQIRWTKTAGSASDRFQDSSVFNETLRITNIQRHQGGRYYCKAENGLGSPAIKSIRVDVYYLDDPVVTVHQSIGEAKEQFYYERTVFLRCVANSNPPVRYSWRRGQEVLLQGSDKGVEIYEPFFTQGETKILKLKNLRPQDYANYSCIASVRNVCNIPDKMVSFRLSNKTASPSIKLLVDDPIVVNPGEAITLVCVTTGGEPTPSLTWVRSFGTLPEKIVLNGGTLTIPAITSDDAGTYSCIANNNVGNPAKKSTNIIVRALKKGRFWITPDPYHKDDNIQIGREVKISCQVEAVPSEELTFSWFKNGRPLRSSERMVITQTDPDVSPGTTNLDIIDLKFTDFGTYTCVASLKGGGISDISIDVNISSSTVPPNLTVPQEKSPLVTREGDTIELQCQVTGKPKPIILWSRADKEVAMPDGTMQMESYDGTLRIVNVSREMSGMYRCQTSQYNGFNVKPREALVQLIVQYPPAVEPAFLEIRQGQDRSVTMSCRVLRAYPIRVLTYEWRLGNKLLRTGQFDSQEYTEYPLKSLSNENYGVYNCSIINEAGAGRCSFLVTGKAYAPEFYYDTYNPVWQNRHRVYSYSLQWTQMNPDAVDRIVAYRLGIRQAGQQRWWEQEIKINGNIQKGELITYNLTELIKPEAYEVRLTPLTKFGEGDSTIRVIKYTGEFHCGFEDGNICLFTQDDTDNFDWTKQSTATRNTKYTPNTGPSADRSGSKEGFYMYIETSRPRLEGEKARLLSPVFSIAPKNPYGPTNSAYCFSFFYHMYGQHIGVLNVYLRLKGQTTIENPLWSSSGNKGQRWNEAHVNIYPITSFQLIFEGIRGPGIEGDIAIDDVSIAEGECAKQDLPTKNSVD"}, "B2": {"name": "MDGA2-GFP (full-length human MDGA2 in pEGFP-N1) (protein, UniProt Q7Z553 26-931)", "chain": "PPTVRIVHSGLACNIEEERYSERVYTIREGETLELTCLVTGHPRPQIRWTKTAGSASDRFQDSSVFNETLRITNIQRHQGGRYYCKAENGLGSPAIKSIRVDVYYLDDPVVTVHQSIGEAKEQFYYERTVFLRCVANSNPPVRYSWRRGQEVLLQGSDKGVEIYEPFFTQGETKILKLKNLRPQDYANYSCIASVRNVCNIPDKMVSFRLSNKTASPSIKLLVDDPIVVNPGEAITLVCVTTGGEPAPSLTWVRSFGTLPEKTVLNGGTLTIPAITSDDAGTYSCIANNNVGNPAKKSTNIIVRALKKGRFWITPDPYHKDDNIQIGREVKISCQVEAVPSEELTFSWFKNGRPLRSSERMVITQTDPDVSPGTTNLDIIDLKFTDFGTYTCVASLKGGGISDISIDVNISSSTVPPNLTVPQEKSPLVTREGDTIELQCQVTGKPKPIILWSRADKEVAMPDGSMQMESYDGTLRIVNVSREMSGMYRCQTSQYNGFNVKPREALVQLIVQYPPAVEPAFLEIRQGQDRSVTMSCRVLRAYPIRVLTYEWRLGNKLLRTGQFDSQEYTEYAVKSLSNENYGVYNCSIINEAGAGRCSFLVTGKAYAPEFYYDTYNPVWQNRHRVYSYSLQWTQMNPDAVDRIVAYRLGIRQAGQQRWWEQEIKINGNIQKGELITYNLTELIKPEAYEVRLTPLTKFGEGDSTIRVIKYSAPVNPHLREFHCGFEDGNICLFTQDDTDNFDWTKQSTATRNTKYTPNTGPNADRSGSKEGFYMYIETSRPRLEGEKARLLSPVFSIAPKNPYGPTNTAYCFSFFYHMYGQHIGVLNVYLRLKGQTTIENPLWSSSGNKGQRWNEAHVNIYPITSFQLIFEGIRGPGIEGDIAIDDVSIAEGECAKQDLATKNSVD"}, "B3": {"name": "MDGA2 (endogenous, HeLa cells) (protein, UniProt Q7Z553 26-931)", "chain": "B2 chain"}}, "key": {"[1]": {"molecular_target": "T1, MDGA2-GFP (full-length human MDGA2 in pEGFP-N1) (human) (UniProt Q7Z553)", "T1 sequence": "B2 chain", "experiment": "co-IP; HEK293T cells co-transfected with MDGA2-GFP and Myc-tagged RPS23RG1 constructs; IP with IgG and antibodies against GFP or Myc; immunoblotting"}, "[2]": {"molecular_target": "T2, MDGA2 (endogenous, mouse brain) (mouse (endogenous in mouse brain)) (UniProt P60755)", "T2 sequence": "B1 chain", "experiment": "co-IP; protein lysates from 1.5-month-old WT (and Rps23rg1 KO) mouse brain; IP with IgG and antibodies against SORT1 or MDGA2; immunoblotting"}, "[3]": {"molecular_target": "T1, MDGA2-GFP (full-length human MDGA2 in pEGFP-N1) (human)", "experiment": "co-IP; exogenous MDGA2 and endogenous SORT1 (Figure S4A); cells and antibody not given"}, "[4]": {"molecular_target": "SORT1 (endogenous, mouse brain) (mouse (endogenous in mouse brain)) (UniProt Q6PHU5)", "experiment": "co-IP; protein lysates from 1.5-month-old WT (and Rps23rg1 KO) mouse brain; IP with IgG and antibodies against SORT1 or MDGA2; immunoblotting"}, "[5]": {"molecular_target": "GST-fused RPS23RG1 extracellular fragment (RPS23RG1 aa 1-131) (human)", "experiment": "pull-down; GST-RR1-ED incubated with synaptosome lysates, pull-down with glutathione Sepharose 4B, SDS-PAGE and immunoblotting; only the target purified"}, "[6]": {"molecular_target": "T3, P2 peptide, biotin-labeled (RPS23RG1 aa 112-126) (human)", "T3 sequence (peptide, biotin at the amino terminus, bridged with a GGG linker)": "GGGSYFSQHNSFCMRSTS", "experiment": "pull-down; biotin-labeled peptides injected intravenously in mice for 5 days (10 mg/kg/d); brain lysates precipitated with avidin beads; immunoblot for MDGA2; only the target purified"}, "[7]": {"molecular_target": "Myc-RPS23RG1 (full-length human RPS23RG1) (human)", "experiment": "co-IP; HEK293T cells co-transfected with MDGA2-GFP and Myc-tagged RPS23RG1 constructs; IP with IgG and antibodies against GFP or Myc; immunoblotting"}, "[8]": {"molecular_target": "SORT1 (endogenous, HEK293T cells) (human (endogenous in HEK293T)) (UniProt Q99523)", "experiment": "co-IP; HEK293T cells co-transfected with MDGA2-GFP and Myc-tagged full-length RR1 or Δ103-128; IP with antibodies against GFP or SORT1; immunoblotting"}, "[9]": {"molecular_target": "T4, P1 peptide, biotin-labeled (RPS23RG1 aa 103-109) (human)", "T4 sequence (peptide, biotin at the amino terminus, bridged with a GGG linker)": "GGGGRIWLFG", "experiment": "pull-down; HeLa cells incubated with biotin-labeled P1 or P2 peptide (100 nM) for 16 h; cell lysates incubated with avidin beads; immunoblot for MDGA2; only the target purified"}, "[10]": {"molecular_target": "T3, P2 peptide, biotin-labeled (RPS23RG1 aa 112-126) (human)", "experiment": "pull-down; HeLa cells incubated with biotin-labeled P1 or P2 peptide (100 nM) for 16 h; cell lysates incubated with avidin beads; immunoblot for MDGA2; only the target purified"}}, "note": "These are yes or no findings as the source states them, for the method shown. In cells and extracts the contact can be indirect. Some entries that bind do so weakly or less than the wild type. For part of these data: Sequences can lack the tags named with a protein."}
{"molecule": "Myc-RPS23RG1-Δ103-128 (from UniProt A0A4D6IX63 1-173)", "values": [{"measurement": "binding", "setting": "[1]", "result": "no binding"}]}
{"molecule": "SORT1 (endogenous, mouse brain) (from UniProt Q6PHU5 74-825)", "values": [{"measurement": "binding", "setting": "[2]", "result": "binds"}]}
{"molecule": "Myc-RPS23RG1 (full-length human RPS23RG1) (from UniProt A0A4D6IX63 1-173)", "values": [{"measurement": "binding", "setting": "[1]", "result": "binds"}]}
{"molecule": "SORT1 (endogenous, HEK293T cells) (from UniProt Q99523 78-831)", "values": [{"measurement": "binding", "setting": "[3]", "result": "binds"}]}
{"molecule": "Myc-RPS23RG1-Δ57-67 (from UniProt A0A4D6IX63 1-173)", "values": [{"measurement": "binding", "setting": "[1]", "result": "binds"}]}
{"molecule": "B1", "values": [{"measurement": "binding", "setting": "[4]", "result": "binds"}, {"measurement": "binding", "setting": "[5]", "result": "binds"}, {"measurement": "binding", "setting": "[6]", "result": "binds"}]}
{"molecule": "B2", "values": [{"measurement": "binding", "setting": "[7]", "result": "binds"}, {"measurement": "binding", "setting": "[8]", "result": "binds"}]}
{"molecule": "B3", "values": [{"measurement": "binding", "setting": "[9]", "result": "no binding (tested: 100 nM)"}, {"measurement": "binding", "setting": "[10]", "result": "binds"}]}
